Laboratory results from the RNAGym collection of RNA variant scans (doi:10.1073/pnas.2313332121).
This sample is rich in variants without activity.

B1: TPR 5TU (parent)
chain: GGAUCUUCUCGAUCUAACAAAAAAGACAAAUCUGCCACAAAGCUUGAGAGCAUCUUCGGAUGCAGAGGCGGCAGCCUUCGGUGGCGCGAUAGCGCCAACGUUCUCAACUAUGACACGCAAAACGCGUGCUCCGUUGAAUGGAGUUUAUCAUG

Variants of: B1
Experiment: polymerase ribozyme fitness, log enrichment relative to wild type (log ratio); higher = more active; in vitro selection for triplet polymerase activity
Method in brief: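 One round of in vitro selection, in triplicate, was applied to PCR-built, transcribed mutant libraries of each subunit of a heterodimeric triplet polymerase ribozyme. The steps were annealing with a biotinylated primer, partner subunit and triplets, incubation frozen at −7 °C, gel excision of extended constructs, streptavidin-bead capture and RT-PCR. Fitness is the logarithm, base 2, of genotype enrichment over wild-type enrichment from inverse-variance-weighted replicate averages of Illumina-sequenced inputs and outputs, keeping genotypes with ≥10 input reads and ≥1 read per output.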

GGAUCUUCUCUAUCUAACAAAAAAGACAAAUCUGCCACAAAGCUCGAGAGCAUCUUGGUAUGCAGUGGCGGCAGCCUUCGGUGGCGCGAUAGCACCAACGUUCUCAACUAUGACACGCAAAACGCGUGCUCCGUUGAAUGGAGUUUAUCAUG [G11U U45C C57G G59U A66U G94A] and GGAUCUUCUCGCUCUAACGAAAAAGACAAAUCUGCCACAAAGCUUGAGAGCAUCUUCUGAAGCAGAGGCGGCAGCCUUCGGUGGCGCGAUAGCGCCAACGUUCUCAACUAUGACACGCAAAACGCGUGCUCCGUUGAAUGGAGUUUAUCAUG [A12C A19G G58U U61A] cannot be ordered by “polymerase ribozyme fitness (log ratio)” value: at most -4.2 for the first, at most -4.2 for the second.

GGAUCUUCUCGCUCUAACUAAAAAGACAAAUCUGCCACAAAGGUUGAGAGCAUCAUCGGAUGCAGAGGCGGCAGCCUUCGGAGGCGCGAUAGUGCUAACGUUCUCAACUAUGACACGCAAAACGCGUGCUCCGUUGAAUGUAGUUUAUCAUG [A12C A19U C43G U55A U82A C93U C96U G141U] and GGAUCUUCUCGCUCUAACAAAAAAGACGAAUCUGCCUCAAAGCUAGAGAGCAUCUUCGGAUGCAGAGGCGGCAGCCUUCGGUGGCGCGAUAGUGCCAACGUUCUCAACUAUGACACGCAAAACGCGUGCUCCGUUGAAUGGAGUUUAUCAUG [A12C A28G A37U U45A C93U] cannot be ordered by “polymerase ribozyme fitness (log ratio)” value: at most -4.2 for the first, at most -4.2 for the second.

GGAUCUUCUCGCUCUAACAAACAAGACAAAUCUGCCACAAAGCUUGAGAGCAUCUUCGGAUGCAGAGGCGGCAGCCUUCGGUGGCGCGAUAGCGCCGAAGUUCUCAACUAUGACACGCAAAACGCGUGCUCCGUUGACUGGAGUUUAUCAUG [A12C A22C A97G C99A A138C] and GGAUCUUCUCGCUCUAACAAAAAAGACGAAUCAGCCACAAAGCUUGAGAGCAUCAUCGGAUGCAGAGGCGGCAGCCUUCGGUGGCGCGUUAGCGUCAACGUUCUAAACUAUGACACGCAAAACGCGUGCUCCGUUGAAUGGAGUUUAUCAUG [A12C A28G U33A U55A A89U C95U C105A] cannot be ordered by “polymerase ribozyme fitness (log ratio)” value: at most -4.2 for the first, at most -4.2 for the second.

GGAUCUUCUCGCUCUAACAAAAAAGACAAAUCUGCCUCAAAGCUUGAGAGCAUCUUCGGAUGCAGAGGCGGCAGCCUUCGGUGGCGCAAUAGGGCCAACGUUCUUCACUAUGACACGCAAAACGCGUGCUCCGUUGAAUGGAGUUUAUCAUG [A12C A37U G88A C93G C105U A106C] and GGAUCUUCUCGCUCUAACUAAAAAGACAAAUCUGCCACAAAGCUUGAGAUCAUCUUCGGAUACAGAGGCGGCAGCCUUCGGUGGCACGAUAGCGCCAACGUUCUCAUCUAUGACACGCAAAACGCGUGCUCCGUUGAAUGGAGUUUAUCAUG [A12C A19U G50U G62A G86A A107U] cannot be ordered by “polymerase ribozyme fitness (log ratio)” value: at most -4.2 for the first, at most -4.2 for the second.

GGAUCUUCUCUAUCAAACAAAAAAGACCAAUCUGCCACAAAGCUUGAGGGCAUCUUCGGAUGCAGAGGCGGCAGCCUUCGGUGGCGCGAUAGCGCCAACGUUCUCAACUAUGACACGCAAAACGCGUGGUCCGUUGAAUGGAGUUUAUCAUG [G11U U15A A28C A49G C129G] and GGAUCUUCUCGCUCUAACAAUAAAGACAAAUCUGCCACAAAGCUUGAGAGCCUGUUAGGAUGCAGAGGCGGCUGCCUUCGGUGGCGCCAUAGCGCCAAUGUUCUCAACUAUGACACGCAAAACACGUGCUCCGUUGAAUGGAGUUUAUCAUG [A12C A21U A52C C54G C57A A73U G88C C99U G124A] cannot be ordered by “polymerase ribozyme fitness (log ratio)” value: at most -4.2 for the first, at most -4.2 for the second.

GGAUCUUCUCGCUCUAACAAAAAAGACUAAUCUGCCACAAAGCUUGAGAGCAUCUUCGGAUGCAGAGGCGGCAGCCUUCGGUAUGGCGAUAGCGCCAACGUUCUCAACUAUGACACGCAAAACGCGUGCUCCGUUGAAUGGAGUUUAUCAAG [A12C A28U G83A G84U C85G U151A] and GGAUCUUCUCGCUCUAACAAAGAAGACAAAUUUGCCACAAAGCUUCAGAGCGUCUUCGGAUGCAGAGGCGGCAGCCUUCGGUGGCGCGAUAGCGCCAACGUUCUCAACUAUGACACGCAAAACGCGUGCUCCGUUGAAUGGAGUUUAUCAUG [A12C A22G C32U G46C A52G] cannot be ordered by “polymerase ribozyme fitness (log ratio)” value: at most -4.2 for the first, at most -4.2 for the second.

GGAUCUUCUCGCUCUAACAAAAUAGACAAAUCUGCCACAAAGCUUCAGAGCAUCUUCGGAUGCAGAGGCGGCAGCCGUCUGUGGCGCGAUAGCGCCAACGUUCUCAACUAUGACACGCAAAACGCGUGCUCCAUUGAAUGGAGUUUAUCAUG [A12C A23U G46C U77G G80U G133A] and GGAUCUUCUCGCUCUAACAAAAAAGACAAUUCUGCCACAACGCUUGCGAGCAUCCUCGGAUGCAGAGGCGGCAGCCUUCGGUGGCGCGAUAGUGCUAACGUUCUCAACUAUGACACGCAAAACGCGUGCUCCGUUGAAUGGAGUUUAUCAUG [A12C A30U A41C A47C U55C C93U C96U] cannot be ordered by “polymerase ribozyme fitness (log ratio)” value: at most -4.2 for the first, at most -4.2 for the second.

GGAUCUUCUCUAUCAAACAAAAAAGACAAAUCUGCCACAAAGCUUGAGAGCAUCUUCGCAUGCAGAGGCGGCAGCCUUCGGUGGCGCGAUAGGGCCAACGUUCUCAACUAUCACACGCAAAACGCGUGCUCCGUUGAAUGCAGUUUAUCAUG [G11U U15A G59C C93G G112C G141C] and GGAUCUUCUCGCUCUAACACAAAAGGCAAAUCUGCCACAAAGCUUGAGAGCAUCUUCGGAUGCAGAGGCGGCAGCCUUCGGUGGCGCGAUAGCGCCAACGUUCUCAACUAUGACACGCAAAACGCGUGCUCCGUUGAAUGGAGUUUAUCAUG [A12C A20C A26G] cannot be ordered by “polymerase ribozyme fitness (log ratio)” value: at most -4.2 for the first, at most -4.2 for the second.

GGAUCUUCUCGCUCUAUCAAAAAAGUCAAAUCUGCCACAAAGCUUGAGAGCAUCUUCCGAUGCAGAGGCGGCAGCCUUCGGUGGCGCGAUAGCGUCAACGUUCUCAUCUAUGACACGCAAAACGCGUGCUCCGUUGAAUGGAGUUUAUCAUG [A12C A17U A26U G58C C95U A107U] and GGAUCUUCUCGCUCUAACAAAAAAGACAUAUCUGCCACAAAGCUUGAGAGCGUCUUCGGAUGCAGAGGCGGCAGCCUUCGGUGGAGCGAUAGCGCCAACGUUCUCAACUAUGACACGCAAAACGCGUGCUCCGUGGAAUGGAGUUUAUCAUG [A12C A29U A52G C85A U135G] cannot be ordered by “polymerase ribozyme fitness (log ratio)” value: at most -4.2 for the first, at most -4.2 for the second.

In the case of GGAUCUUCUCUAUCUAACAAAAAAGACAAAUCUGCCACAAAGCUUGAGAGCAUCUUCGGAUGCAGAGGCGGCAGCCUUCGGUGGCGCGAUAGCGCCAACGUUCGCAACUAUGACACGCAAAACGCGUGCUCCGUUGAAUGGAGUUUAUCAUG [G11U U104G], the “polymerase ribozyme fitness (log ratio)” value is reported as -1.58.
